# Results as given in PubChem BioAssay AID1745853 (National Center for Advancing Translational Sciences (NCATS), 2022).
# This is one part of the list. Shown are side measurements of this screen, not its main read-out; they come without a call.
# Columns and labels:
# Assay in all cases: Primary Screen for Target Class Profiling of Small Molecule Inhibitors of Methyltransferases
# [1] = biological target: Glycine N-methyltransferase (Homo sapiens) (UniProt Q14749); conditions: purified enzyme, MTase-Glo SAH luminescence; measured here: GNMT inhibition; at 40 µM; stronger effect = lower value
# Procedure, shortened: (§1)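 Each enzyme was assayed with SAM and its substrate. SAH formation detected by MTase-Glo luminescence; single-point 40 uM screen[…].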
# [2] = biological target: Guanidinoacetate N-methyltransferase (Homo sapiens) (UniProt Q14353); conditions: purified enzyme, MTase-Glo SAH luminescence; measured here: GAMT inhibition; at 40 µM; stronger effect = lower value
# Procedure, shortened: as §1
# [3] = biological target: Histamine N-methyltransferase (Homo sapiens) (UniProt P50135); conditions: purified enzyme, MTase-Glo SAH luminescence; measured here: HNMT inhibition; at 40 µM; stronger effect = lower value
# Procedure, shortened: as §1
# [4] = biological target: Nicotinamide N-methyltransferase (Homo sapiens) (UniProt P40261); conditions: purified enzyme, MTase-Glo SAH luminescence; measured here: NNMT inhibition; at 40 µM; stronger effect = lower value
# Procedure, shortened: as §1
# [5] = biological target: Phenylethanolamine N-methyltransferase (Homo sapiens) (UniProt P11086); conditions: purified enzyme, MTase-Glo SAH luminescence; measured here: PNMT inhibition; at 40 µM; stronger effect = lower value
# Procedure, shortened: as §1
# On the % scale 0 is the no-effect control and ±100 the full control effect.
Structure (SMILES),"activity change, negative = inhibition [1]","activity change, negative = inhibition [2]","activity change, negative = inhibition [3]","activity change, negative = inhibition [4]","activity change, negative = inhibition [5]"
Cc1ccc(CNC(=O)C2(C)Cn3cnc(C(=O)NCc4ccccc4F)c3C(=O)N2C2CC2)cc1 (configuration not stated),-4.36%,0.984%,-2.41%,-2.11%,-3.41%
Cc1cc(F)ccc1NC(=O)Cn1nc2nc(Nc3ccc(F)cc3)ccn2c1=O,-1.91%,0%,8.76%,0.914%,2.3%
CN(Cc1ccccc1)Cc1cc(C[C@H]2CNCC[C@H]2CC(=O)NCc2cccs2)no1,-9.55%,-15%,-11.5%,-17.1%,-14.7%
O=C(NCCN1CCCC1)C1CCN(c2cnn(CC3CC3)c(=O)c2)C1 (configuration not stated),-4.37%,-4.26%,-25.2%,-10.7%,9.65%
COc1ccc(CN2C(=O)c3cc4ccc(OC)cc4n3CC2(C)C(=O)NCC2CCCO2)cc1 (configuration not stated),7.72%,1.78%,8%,14.7%,3.52%
Cc1ccccc1-c1nccc2c(=O)cc(C3=CCOCC3)oc12,-28.1%,-14%,-17.8%,-21.5%,5.6%
CC1(C(=O)NC2CCCCCC2)Cn2c(cc3sccc32)C(=O)N1Cc1cccc(F)c1 (configuration not stated),2.33%,4.22%,6.08%,-1.25%,1.5%
COc1cccc(N2C(=O)c3cc4sccc4n3CC2(C)C(=O)NC2CCCC(C)C2C)c1 (configuration not stated),-4.81%,0%,1.72%,3.01%,-0.978%
C=C1CCC2[C@@](C)(C(=O)O)CCC[C@@]2(C)[C@@H]1CCc1ccoc1 (some centres not stated),-6.49%,-7.18%,3.25%,-19.2%,-11.4%
CC1(C(=O)NC2CCCCC2)Cn2c(ccc2-c2ccco2)C(=O)N1Cc1cccnc1 (configuration not stated),-7.11%,-8.84%,6.04%,-1.03%,-5.07%
Cc1ccc(NC(=O)CN(C)S(=O)(=O)c2ccc3[nH]c4c(c3c2)CCCC4)c(Br)c1,-4.91%,1.63%,-0.751%,-8.41%,-1.25%
CCOC(=O)CNC(=O)C1(C)Cn2c(ccc2-c2ccco2)C(=O)N1Cc1cc(OC)ccc1OC (configuration not stated),-5.63%,0%,0.3%,-3.8%,-0.743%
COc1ccc2c(c1)CCC1C2CC[C@@]2(C)C1CC[C@@H]2NCCCCCCN1C(=O)CCC1=O (some centres not stated),5.86%,14.2%,11.7%,-2.84%,4.61%
CCCc1c(C(C)C)nc(C(C)C)c([C@@H](C)O)c1-c1ccc(F)cc1O,-0.55%,-2.94%,3.38%,-26.2%,-3.24%
O=C(Cn1nc2n(Cc3ccccc3)c(=O)c3ccccc3n2c1=O)NCc1ccccc1Cl,3.31%,0.893%,6.16%,0.755%,1.58%
COc1ccc(CN2C(=O)c3cc(-c4ccccc4)nn3CC2(C)C(=O)NCc2ccccc2OC)cc1 (configuration not stated),0.128%,-0.074%,4.96%,-1.1%,-15%

Structure (SMILES),"activity change, negative = inhibition [1]","activity change, negative = inhibition [2]","activity change, negative = inhibition [3]","activity change, negative = inhibition [4]","activity change, negative = inhibition [5]"
O=C(NC1CN(c2ccnc3ccnn23)C1)c1ccc(Cl)nc1,-26.3%,-7.18%,-4.74%,-17.5%,6.97%
COCCCNC(=O)C1(C)Cn2nc(-c3ccccc3)cc2C(=O)N1c1ccc(C)c(Cl)c1 (configuration not stated),2.77%,2.2%,5.86%,4.19%,-3.9%
COc1ccccc1N1CCN(C(=O)Cn2c(=O)n3nc(C)nc3c3ccccc32)CC1,-0.093%,2%,0.644%,-3.11%,-5.65%
COc1cccc(C(CC(=O)NCC(C)C)c2c[nH]c3ccccc23)c1 (configuration not stated),-1.45%,-1.9%,-1.15%,-0.873%,4.44%
CCCn1c(=O)c2cc(F)ccc2n2c(SCC(=O)Nc3ccccc3C)nnc12,-4.11%,0.071%,8.08%,-1.98%,5.37%
CN(C(=O)c1ccc(Cl)nc1)C1CCCc2ccccc21 (configuration not stated),-6.41%,-8.35%,-3%,-23.7%,-21.2%
CCOC(=O)C(CCc1ccccc1)NC(C)C(=O)N1Cc2ccccc2CC1C(=O)O (configuration not stated),-0.632%,,9.77%,,
Cc1ccc(Cl)cc1NC(=O)CSc1nnc2n(CCCOC(C)C)c(=O)c3ccccc3n12,-6.26%,-0.293%,-0.885%,-15.8%,-4.7%
CCCN1C(=O)c2cc(C(=O)NCCN3CCCCC3)nn2CC1(C)C(=O)NC1CCCC1 (configuration not stated),5.7%,5.12%,8.72%,7.14%,5.28%
COCCn1c(C)cnc1CCNC(=O)Cc1cccc(F)c1,-1.47%,-4.01%,-11.9%,-8.18%,-7.1%
Cc1cc(C)n(-c2cccc(CN(C)C(=O)Cn3nnnc3CN3CCOCC3)c2)n1,-7.23%,-10.4%,-3.96%,-10.8%,-4.56%
COc1cc(C(=O)OCCCN2CCCN(CCCOC(=O)c3cc(OC)c(OC)c(OC)c3)CC2)cc(OC)c1OC,-0.378%,12%,-16%,-4.5%,6.33%
CCOc1ccc(NC(=O)N2Cc3c(sc4c3CCCC4)-n3cccc3C2c2cccc(F)c2)cc1 (configuration not stated),2.36%,0%,5.15%,1.35%,6.6%
COC(=O)C1=C(C)NC(C)=C([N+](=O)[O-])C1c1ccccc1C(F)(F)F (configuration not stated),2.31%,14.5%,7.34%,-8.57%,4.05%
COc1ccc(CCNC(=O)C(C)C2CCOCC2)cc1OC (configuration not stated),-1.75%,-2.9%,-1.83%,-8.78%,-2.83%
